Measured values taken from PubChem BioAssay AID686978 (National Center for Advancing Translational Sciences (NCATS), 2013).
Values joined by “and” are separate entries in the source; they are usually repeats but may differ in a detail not shown here. Equal values may be shown once. Out of some 420,000 compounds screened, about 64,000 (15%) were called active. This list was built around the results that the source calls inconclusive (neither active nor inactive); the mix of calls is not that of the screen. Calls follow the shape of the dose curve; as a rule, active = well fitted inhibition curve with a large enough effect; inconclusive = small, poorly fitted or top-dose-only effect; inactive = flat fitted curve, though single readings scatter. Potencies of inconclusive entries are doubtful fits and often do not repeat.

Assay: qHTS for Inhibitors of human tyrosyl-DNA phosphodiesterase 1 (TDP1): qHTS in cells in absence of CPT; also: nearly all actives have a fitted effect of over 55% in size
Conditions: DT40 Tdp1-/- hTDP1 cells, no CPT, ATP luminescence, 48 h; activity change, negative = growth inhibition: at 46.2 µM (top of the series) unless noted
In short: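 No-CPT arm: Tdp1-/-;hTDP1 DT40 cells (400/well) plus compounds, incubated ≥48 hr at 37 °C. Readout CellTiter-Glo luminescence.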
% is scaled to controls: 0 for no effect and ±100 for the full control effect; potency is read from the fitted curve at half-maximal effect; tags tell the direction and shape of the fitted curve.

Structure (SMILES)	Potency	activity change, negative = growth inhibition
CCOC(=O)C(=Cc1ccc(-c2ccsc2C(=O)OC)o1)C(=O)OCC	inconclusive: 18.4 µM [inhibitor, single point]	–
Cc1ccc(S(=O)(=O)N(CC(=O)NCc2cccs2)c2ccccc2)cc1	–	inactive: -21.3%
C=Cc1ccc(Cn2c(C)c(CNCc3ccccc3C)c(C(=O)O)c2C)cc1	inconclusive: 3.26 µM [inhibitor, full curve]	–
Cc1cc(S(=O)(=O)N2CCCC(N3CCOCC3)C2)c(C)cc1Cl (stereo not drawn)	inconclusive: 14.6 µM [inhibitor, partial curve]	–
O=C(CSc1nc(=O)n(CCCN2CCOCC2)c2c1CCCC2)Nc1ccccc1Cl	–	inactive: -19%
CC1(C)CCc2cc(-c3ccn(S(=O)(=O)c4ccccc4Cl)n3)ccc2O1	inconclusive: 25.9 µM [inhibitor, single point]	–
COCCNCCOc1ccc(C)cc1[N+](=O)[O-]	–	inactive: -0.436%
COc1ccc(NC(=O)CN(C)C(=O)COc2ccccc2Cc2ccccc2)cc1	active: 18.4 µM	–
CCOc1ccc(CN(C)C(=O)CCl)cc1	active: 2.91 µM	–
COC(=O)CSc1nnc(NC(=O)C2CC(=O)N(c3ccc(F)cc3)C2)s1 (stereo not drawn)	–	inactive: 9.71%
O=C1OC(c2ccccc2)=C/C1=C/N1CCOCC1	active: 16.4 µM	–
COc1ccc(NC(=O)c2ccc([N+](=O)[O-])o2)cc1	active: 23.1 µM	–
Cc1ccc(C(=O)c2oc3ccccc3c2NC(=O)c2cc(-c3ccccc3O)n[nH]2)cc1	active: 10.3 µM	–
Cc1ccc(-c2nnc(Nc3ccc(C(=O)N(C)C)cc3)c3ccccc23)cc1S(=O)(=O)N(C)C	active: 10.3 µM	–
O=C(Nc1nnc(S(=O)(=O)N2CCCCC2)s1)c1ccccc1Br	inactive and inconclusive: 29.1 µM [inhibitor, partial curve]	–
CCn1cc(C2=NOC(C(=O)Nc3cc(C)nn3-c3ccccc3)C2)c(C)n1 (stereo not drawn)	–	inactive: -13.5%
Cc1ccc(NC(=O)[C@@H]2CCCN2C(=O)[C@@H]2Cc3ccccc3CN2)c(C)c1	–	inactive: 1.47%
C#Cc1ccc(CN2CCC(C(=O)Nc3ccc(Oc4ccccc4)nc3)CC2)cc1	inconclusive: 9.2 µM [inhibitor, partial curve]	–
C/C(=N\NC(=O)c1ccc([N+](=O)[O-])cc1Cl)c1ccccc1	inconclusive: 20.6 µM [inhibitor, single point]	–
C/C(N)=C(/C#N)C(=O)COC(=O)c1cc(-c2ccc(C)cc2)nc2ccccc12	inconclusive: 20.6 µM [inhibitor, single point]	–
COC(=O)c1coc(-c2ccc(C)cc2)c1C(=O)OC	–	inactive: -10.6%
CCN(C(=O)CN1C(=O)COc2ccc(S(=O)(=O)N3CCOCC3)cc21)c1ccc(OC)cc1	inactive and inconclusive: 14.6 µM [inhibitor, single point]	–
CC(C)Oc1cccc(C(=O)C2CCCN(C(=O)c3cc(C4CC4)[nH]n3)C2)c1 (stereo not drawn)	inconclusive: 20.6 µM [inhibitor, partial curve]	–
Cc1ccc(C(=O)C2CCN(C(=O)c3ccc(C)cc3)CC2)cc1	inconclusive: 29.1 µM [inhibitor, single point]	–
Cc1ccc2c(c1)ncc[n+]2CC(=O)c1ccc(F)cc1	active: 10 µM	–

Structure (SMILES)	Potency	activity change, negative = growth inhibition
Oc1ccccc1-c1nc(NCc2cccnc2)c2ccccc2n1	inconclusive: 29.1 µM [inhibitor, single point]	–
Cc1cc(C)c(CN2CCC(CO)(CCOc3ccccc3)CC2)cc1C	inconclusive: 29.1 µM [inhibitor, single point]	–
O=C(Nc1cccc(-c2cccc(Cl)c2)c1)C1CCN(CC2CCOC2)CC1 (stereo not drawn)	inconclusive: 29.1 µM [inhibitor, single point]	–
COc1ccccc1Cn1c(=S)[nH]c2ccccc2c1=O	inconclusive: 18.4 µM [inhibitor, single point]	–
CCOC(=O)C(NC(C)=O)C(=O)Nc1ccc(C(C)(C)C)cc1 (stereo not drawn)	–	inactive: 1.85%
C=CCc1ccccc1OCCSc1nc2ccc([N+](=O)[O-])cc2s1	inconclusive: 25.9 µM [inhibitor, single point]	–
C=C(C)COc1ccc2c(CC)cc(=O)oc2c1C	inconclusive: 18.4 µM [inhibitor, partial curve, poor fit]	–
O=C(Nc1cccc(F)c1)c1ccc2c(c1)N(Cc1ccccc1)C(=O)c1ccccc1S2(=O)=O	inconclusive: 29.1 µM [inhibitor, single point]	–
O=C(/C=C/c1ccccc1)NC(NC(=S)Nc1ccc(C(=O)O)cc1)C(Cl)(Cl)Cl (stereo not drawn)	–	inactive: -7.3%
CC1CCc2nn(CC(=O)NCc3ccco3)cc2C1 (stereo not drawn)	inconclusive: 20.6 µM [inhibitor, single point]	–
Clc1cc(Br)ccc1OCCOCCN1CCCC1	inconclusive: 29.1 µM [inhibitor, single point]	–
CCc1cccc(C)c1NC(=O)CSc1nnc(CCCOc2ccc(Cl)cc2Cl)n1C	active: 14.6 µM	–
Cc1ccc(/C=N\Nc2nc3ccc(Cl)cc3[nH]2)o1	active: 20.6 µM	–
O=C(NC(=S)Nc1ccccc1O)c1cccnc1	inconclusive: 3.66 µM [inhibitor, single point]	–
CN1[C@@H]2CC[C@H]1CC(NC(=O)n1c(=O)[nH]c3ccccc31)C2 (stereo partly drawn)	–	inactive: -3.79%
COc1cc(C(=O)NCCc2ccccc2)ccc1OCC(=O)N1CCOCC1	–	inactive: 26.1%
COc1ccc(-c2nc3ccccc3s2)cc1NC(=O)c1ccc(F)cc1	inconclusive: 20.6 µM [inhibitor, single point]	–
CC(=O)c1ccc(Cc2ccc(C(C)=O)cc2)cc1	–	inconclusive: -31.2% [inhibitor]
Cc1ccc(OCC(=O)Nc2ccccc2OCc2cc(=O)n3ccccc3n2)cc1C	–	inactive: -16.7%
COc1ccc(C(=O)NCC(c2ccc(N(C)C)cc2)N2CCc3ccccc32)cc1OC (stereo not drawn)	active: 6.51 µM	–
CC(C)C(c1nnnn1C1CCCC1)N1CCCc2ccccc21 (stereo not drawn)	inconclusive: 29.1 µM [inhibitor, single point]	–
S=c1[nH]nc(-c2ccco2)n1C1CCCCC1	–	inactive: -13.1%
C=CCN1C(=O)/C(=C/c2ccc(OC)cc2)S/C1=N/c1nccs1	–	inactive: -21.5%
Cc1noc(/C=C/c2ccccc2F)c1S(=O)(=O)N1CCC(C(=O)N2CCOc3ccccc32)CC1	inconclusive: 14.6 µM [inhibitor, single point]	–
CCc1ccc(NC(=O)Cn2c(=O)n(CCC(=O)NCCc3ccc(Cl)cc3)c(=O)c3ccccc32)cc1	–	inactive: -0.639%

Structure (SMILES)	Potency	activity change, negative = growth inhibition
CCN(CC)c1ccc(CNc2nc3ccccc3n2C(C)C)cc1	inconclusive: 29.1 µM [inhibitor, single point]	–
COc1ccc(C)cc1NC(=O)Nc1cccc(-c2noc(C)n2)c1	inconclusive: 18.4 µM [inhibitor, single point]	–
CCOc1ccc(OCC)c(S(=O)(=O)NCc2ccccc2)c1	–	inactive: -18.4%
Cc1ccc(/C=C2\SC(=S)N(CCC(=O)Nc3cccnc3)C2=O)cc1	–	inactive: -26.6%
COc1cc2c(cc1OC)CN(CC(=O)Nc1ccc3c(c1)OCO3)CC2	–	inactive: -27.8%
C[C@@H](C(=O)N[C@@H](Cc1c[nH]c2ccccc12)C(=O)O)n1nnc2ccccc2c1=O	–	inactive: -28.9%
COc1ccc(N(C(=O)C(C)C)S(=O)(=O)c2cccc3cccnc23)cc1	inconclusive: 5.8 µM [inhibitor, partial curve]	–
O=C(COC(=O)c1cn(-c2ccccc2)nc1-c1ccc(F)cc1)Nc1ncc(Cl)cc1Cl	inconclusive: 23.1 µM [inhibitor, single point]	–
COc1ccc(C(CNC(=O)C(Cc2ccccc2)NC(N)=O)N(C)C)cc1 (stereo not drawn)	–	inactive: -0.348%
CCNC(=S)Nc1sc2c(c1C#N)CCC(C)C2 (stereo not drawn)	inconclusive: 25.9 µM [inhibitor, single point]	–
COC(=O)c1ccsc1NC(=O)c1ccc2c(c1)OCCO2	inconclusive: 16.4 µM [inhibitor, single point]	–
COc1ccc(C(=O)Nc2nc(-c3nnn(-c4ccc(C(C)C)cc4)c3C)ns2)cc1	active: 16.4 µM	–
COc1cc2nnn(-c3ccncc3)c2cc1OC	–	inactive: -4.02%
O=C(COc1coc(CN2CCc3ccccc32)cc1=O)NCCc1ccccc1	active: 18.4 µM	–
CN(Cc1ccccc1)C(=O)c1ccc(NC(=O)Cc2ccc(NC(=O)C3CCN(C(=O)C4CCCC4)CC3)cc2)cc1	inconclusive: 18.4 µM [inhibitor, single point]	–
O=C(CCC(=O)NCc1ccccc1)NCc1ccccc1	–	inactive: -4.23%
CC(=O)NC(c1cccc([N+](=O)[O-])c1)c1c(OC(C)=O)ccc2ccccc12 (stereo not drawn)	inconclusive: 18.4 µM [inhibitor, single point]	–
CC(Oc1cccnc1[N+](=O)[O-])C(=O)N1CCc2ccccc21 (stereo not drawn)	inconclusive: 5.8 µM [inhibitor, single point]	–
Cc1ccc(-c2cc(-c3ccccc3)c(C#N)c(SCC(O)CS(=O)(=O)Cc3ccccc3)n2)cc1 (stereo not drawn)	inconclusive: 3.66 µM [inhibitor, full curve]	–
O=C(C[C@H]1C/C=C\C[C@@H](Cc2ccc(F)cc2)C(=O)O[C@@H](c2ccccc2)CNC1=O)N[C@@H](CO)Cc1ccccc1	–	inactive: -16.6%
O=C(CSc1nc2nc3c(cc2c(=O)n1-c1ccccc1)CCCC3)Nc1cccc2ccccc12	inconclusive: 14.6 µM [inhibitor, single point]	–
COc1ccc(F)cc1S(=O)(=O)Nc1cccc(-c2ccc(N3CCC(C)CC3)nn2)c1	inconclusive: 16.4 µM [inhibitor, single point]	–
Cc1cccc(OCCCCCNCCO)c1	–	inactive: -6.58%
